According to PubChem BioAssay AID686970 (National Center for Advancing Translational Sciences (NCATS), 2013):
The campaign covered roughly 360,000 compounds. About 6,000 (1.7%) were called active. Inconclusive results, whose numbers are uncertain, are shown with a selection of clear calls. The call rests on the fitted dose curve; in most records, active means well fitted cell-killing curve with a large enough effect; inconclusive means small, poorly fitted or top-dose-only effect, or effect the other way; inactive means flat fitted curve, though single readings scatter. No potency is given beside an inconclusive call; the fits are too rough.

experiment: qHTS for induction of synthetic lethality in tumor cells producing 2HG: qHTS for the HT-1080-NT fibrosarcoma cell line; details: HT-1080-NT fibrosarcoma viability, CellTiter-Glo ATP luminescence, 48 h; activity, negative = less viability: at 46.1 µM (top of the series) unless noted;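 further: NT is the 2HG producing partner of a matched IDH1 knockdown line; nearly all actives have a fitted effect of over 55% in size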;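 on activity, negative = less viability: 0% = DMSO-treated cells and -100% = media-only wells without cells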
Summary of the method: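 Read-out is CellTiter-Glo luminescence after 10 minutes at room temperature, following 48 hours' compound treatment of HT-1080-NT cells (750 cells/well, RPMI, 5% FBS, 37 degrees C).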
Potency means the concentration at half of the fitted maximal effect; tags describe the fitted curve by direction and shape.

Structure (SMILES)	Potency	activity, negative = less viability
CN(C)CCCNS(=O)(=O)c1ccc(Oc2ncc(C(F)(F)F)cc2Cl)cc1	inconclusive [cytotoxic, single point]	–
COc1cc(/C=N\Nc2nncn2N)ccc1OC(C)=O	inconclusive [cytotoxic, single point]	–
CCCCCn1cnnc1SCC(=O)c1ccc2c(c1)OCO2	–	inactive: -3.75%
CCOc1cc(NC(=S)NCC2CCCO2)c(OCC)cc1NC(=O)CC (stereo not given)	inconclusive [cytotoxic, single point]	–
CCCCOCCCNC(=O)C[C@@H]1C[C@@]2(C(=O)OCC)CCCC=C2N(Cc2cccc3ccccc23)C1=O	inconclusive [cytotoxic, single point]	–
Cc1ccc(C(=O)Nc2ccon2)cc1S(=O)(=O)N1CCCC1	–	inactive: -3.9%
Cn1cc([N+](=O)[O-])c(C(=O)Nc2ccc(-c3nc4ccccc4o3)cc2)n1	inconclusive [cytotoxic, full curve]	–
COc1ccc(NC(=O)C(NC(=O)OC(C)(C)C)C(C)OCc2ccccc2)cc1 (stereo not given)	–	inactive: -28.2%
O=c1c2ccccc2nc(COc2ccccc2)n1/N=C/c1cc([N+](=O)[O-])ccc1O	–	inactive: -25.1%
CC1(C(=O)Nc2cccc(OC(F)(F)F)c2)Cc2c(-c3cccc(C(F)(F)F)c3)ccnc2O1 (stereo not given)	inconclusive [cytotoxic, single point]	–
CC(C)(C)c1cc2nc(NCc3cccc(Cl)c3)ccn2n1	inconclusive [cytotoxic, single point]	–
CCOc1ccc(C(=O)CCc2nc3ccccc3s2)cc1	inconclusive [cytotoxic, single point]	–
COc1cccc(/C=N\NC(=O)Cn2nnc3ccccc32)c1O	inconclusive [cytotoxic, single point]	–
CCOC(=O)c1ccc(NC(=O)Nc2ccc3c(c2)OCCO3)cc1	inconclusive [cytotoxic, single point]	–
Cc1ccccc1NC(=O)C(Cl)=C(Cl)Cl	inconclusive [cytotoxic, single point]	–
Cc1ccc(C2CC(=O)C=C(NCc3ccccc3)C2)cc1 (stereo not given)	inconclusive [cytotoxic, single point]	–
O=C(Cc1ccccc1)NCC(=O)OCc1ccc([N+](=O)[O-])cc1	–	inactive: 18.1%
Cc1ccnc(NC(=O)/C=C/c2cccs2)c1	inconclusive [cytotoxic, partial curve]	–
N/C(Cc1nc(-c2ccc(F)cc2)cs1)=N\O	–	inactive: 12.6%
Cc1ccc(C(=O)Nc2cccnc2)cc1C	–	inactive: 1.27%
C/C(=N\NC(=O)CNC(=O)c1cccs1)c1ccc(Cl)c(Cl)c1	inconclusive [cytotoxic, single point]	–
CCc1ccc(CN(C)C(=O)c2cc(COc3cccc(C(F)(F)F)c3)on2)nc1	inconclusive [cytotoxic, single point]	–
Clc1ccc(-c2csc3ncnc(NCCN4CCOCC4)c23)cc1	–	inconclusive: -30.2% [cytotoxic]
COc1ccc(NC(=O)C(c2ccc(C(F)(F)F)cc2)n2c(=O)c(-c3cc4ccccc4[nH]3)nc3ccccc32)cc1 (stereo not given)	inconclusive [cytotoxic, single point]	–

Structure (SMILES)	Potency	activity, negative = less viability
C#CCOC(=O)Nc1cccn(Cc2c(Cl)cccc2Cl)c1=O	inconclusive [cytotoxic, single point]	–
CC(C)(C)NC(=O)c1ccc(COc2ccc(Cl)cc2Cl)o1	inconclusive [cytotoxic, single point]	–
O=C(NCC(c1cccs1)N1CCOCC1)c1cn(-c2ccccc2)nc1-c1ccc(F)cc1 (stereo not given)	–	inactive: 10.5%
CCCCCCCCN1C(=O)[C@H](CC(=O)N2CCCC2)C[C@@]2(C(=O)OC)CCCCC=C12	inconclusive [cytotoxic, single point]	–
FC(F)(F)c1nc2ccccc2n2c(-c3ccc(Cl)cc3Cl)nnc12	inconclusive [cytotoxic, single point]	–
CC(=O)n1c2ccccc2c2c1c1ccccc1n2C	active: 23.1 µM	–
CCc1nc(SCC(=O)N2c3ccccc3CC2C)c2c(C)c(C)sc2n1 (stereo not given)	active: 6.31 µM	–
CC(NC(=O)COc1ccc(/C=N/NC(=O)C(=O)Nc2ccccc2Br)cc1)c1ccccc1 (stereo not given)	inconclusive [cytotoxic, single point]	–
CC(C)(/C=N/O)/[N+]([O-])=C/c1ccccc1	inconclusive [rising, partial curve]	–
O=C(NC1CCCC1)C1C(c2ccc(C(F)(F)F)cc2)=Nc2ccccc2N1C(=O)c1ccco1 (stereo not given)	inconclusive [cytotoxic, single point]	–
O=C1/C(=C/c2ccccc2)CCc2ccc(Cl)nc21	inconclusive [cytotoxic, single point]	–
CCCc1nc2ccc(Cl)cn2c1Cc1ccsc1	inconclusive [cytotoxic, single point]	–
COc1cc(/C=N/NC(=O)c2cccnc2)ccc1OC(=O)c1ccc([N+](=O)[O-])cc1	–	inactive: 1.74%
NC(=O)c1ccccc1NC(=O)/C=C/c1ccc(Cl)cc1	inconclusive [cytotoxic, single point]	–
Cc1ccc(NC(=O)NCc2ccncc2)cc1Cl	–	inactive: 24.4%
Cc1oc(-c2cccc(Cl)c2)nc1CS(=O)(=O)CC(=O)NCCCN1CCOCC1	–	inactive: 3.11%
COc1ccc(C2c3c(-c4ccccc4O)n[nH]c3C(=O)N2Cc2ccco2)cc1 (stereo not given)	inconclusive [cytotoxic, partial curve]	–
COc1ccccc1NC(=O)N1CCCC1C(=O)NCCc1ccccc1 (stereo not given)	–	inactive: 14.4%
O=C1CC(/C=C/c2ccc(Cl)cc2)=Nc2ccccc2N1	inconclusive [cytotoxic, single point]	–
COC(=O)c1nn(-c2ccccc2)c(Cl)c1/C=N/OCc1c(Cl)cccc1Cl	–	inactive: 0%
Cc1ccc(NS(=O)(=O)c2ccc(OCC(=O)Nc3cccc([N+](=O)[O-])c3)c(C)c2)cc1	inconclusive [cytotoxic, partial curve, poor fit]	–
NC(=O)CS(=O)(=O)c1nc2ccccc2n1CC(=O)N1CCCCC1	inconclusive [cytotoxic, single point]	–
COc1ccc(C(=O)NCCc2ccc(Cl)cc2)cc1S(=O)(=O)N1CCCCC1C (stereo not given)	inconclusive [cytotoxic, partial curve]	–
Fc1ccc(NC(=S)NN=C2CCCCCC2)cc1	active: 8.91 µM	–

Structure (SMILES)	Potency	activity, negative = less viability
O=C(N/N=C/c1cccc(NC(=O)c2ccc(Cl)cc2)c1)c1cccc(O)c1	inconclusive [cytotoxic, single point]	–
CCCCCn1c(N2CCC(Cc3ccccc3)CC2)nc2c1c(=O)[nH]c(=O)n2C	active: 20.6 µM	–
COc1ccc(CN(C)C(=O)c2cc(-c3ccc(C)cc3C)nc3ccccc23)c(OC)c1OC	inconclusive [cytotoxic, single point]	–
Cc1ccc(S(=O)(=O)N/N=C(\c2ccccc2)c2cccnc2)cc1	–	inactive: 3.51%
Cc1ccc(N2C(=O)c3cccc4c([N+](=O)[O-])ccc(c34)C2=O)c2cccnc12	inconclusive [cytotoxic, partial curve]	–
COc1ccc(S(=O)(=O)NC(=O)C2(C)CCN2C(=O)CC2CCCC2)cc1 (stereo not given)	inconclusive [rising, single point]	–
COc1ccc(-c2cc(N3CCCC3)n3ncnc3n2)cc1	–	inactive: -8.42%
CCOC(=O)c1cc(-c2ccccc2)n(CCC(=O)N2CCN(c3ccc(OC)cc3)CC2)c1C	–	inactive: -6.45%
CCCCN1CCc2c1nc1ccc(Br)cc1c2N	inconclusive [cytotoxic, single point]	–
COc1ccc(-c2cc(C(F)(F)F)n3nc(C(=O)NCc4ccco4)cc3n2)cc1OC	–	inconclusive: -31.8% [cytotoxic]
Cc1ccccc1C(=O)Nc1ccc(Br)cn1	inconclusive [cytotoxic, single point]	–
COc1ccc(OC)c(NC(=O)C(=O)NCCC2=CCCCC2)c1	–	inactive: 18.7%
COc1cccc(NC(=O)c2cccc(C(=O)Nc3cccc(OC)c3)c2)c1	inconclusive [cytotoxic, single point]	–
COc1ccc(CCNC(=O)c2cc3ccc(Cl)cc3nc2N)cc1	–	inactive: -13.4%
Cc1[nH]nc(N=CC2=C(O)CC(c3ccco3)CC2=O)c1-c1ccccc1 (stereo not given)	inconclusive [cytotoxic, single point]	–
COc1cccc(-c2nc3c(c(=O)[nH]c(=O)n3Cc3ccccc3)n2CCO)c1OC(F)F	–	inactive: -3.64%
CCC(C)n1ncn(-c2ccc(N3CCN(c4ccc(O)cc4)CC3)cc2)c1=O (stereo not given)	inconclusive [cytotoxic, full curve]	–
COc1ccc(/C=C2\C(=O)c3ccccc3OC2c2ccccc2)cc1 (stereo not given)	inconclusive [cytotoxic, single point]	–
CC1(C(=O)NCc2ccco2)Cc2c(-c3ccc4c(c3)OCO4)ccnc2O1 (stereo not given)	inconclusive [cytotoxic, full curve]	–
CCc1c(N)nc(N)nc1Nc1ccccc1Cl	inconclusive [cytotoxic, single point]	–
COc1ccc(-n2cc(CNCCc3cnc[nH]3)c(-c3cccc(F)c3)n2)cc1	inconclusive [cytotoxic, single point]	–
CCCCCCCOC(=O)C[N+](C)(C)CCOC1CC2CCC1(C)C2(C)C (stereo not given)	active: 8.2 µM	–
